Laboratory results from the RNAGym collection of RNA variant scans (doi:10.7554/elife.90254).
Read counts are not given, so values of variants with three or more changes are uncertain.

B1: LINE1-mini (parent)
chain: GGCAGAGCUCAACACAGCGUGGCAAAGUGGCUGUGGCUAGACUGCC

Variants of: B1
Assay: self-cleavage, relative activity (ratio to wild type); higher = more cleavage; in vitro, sequencing; the parent is a self-cleaving ribozyme

Row | Variant | self-cleavage
1 | G1U C8U A26G | 0.09
2 | G7U C10U A12G C13U G27A | 0.04
3 | G19C C23G U34G C37U | 0.04
4 | G1A A25C U28C | 0.13
5 | C3U G7U C13U | 0.27
6 | G2U A25U C31U A39G | 0.01
7 | G1A G21A G29A A41G | 0.09
8 | G7C C13A G17A U32C C37U C42U | 0.03
9 | G5U C18G U20A U43A | 0.04
10 | A4U C13U U38G | 0.03
11 | G5C A6U G19A | 0.09
12 | C3A G33U A41C | 0.07
13 | G1A G19C U43G C45U | 0.01
14 | C3G A12C C15U C18A G44C | 0.01
15 | A4U C42U C46U | 0.11
16 | A4U G5C U43A | 0.06
17 | G1U G22A G29A | 0.27
18 | A6G G22C A26U G33A G44U C46G | 0.06
19 | A24G A25G U34G C37U | 0.02
20 | C10A C13G G21A A24C A41U | 0.01
21 | C8U C23G G27C U28A A39C C45U | 0.03
22 | C3G G17U U28C | 0.07
23 | C18G G27C G29C | 0.63
24 | G7A C42G C46A | 0.04

Row | Variant | self-cleavage
25 | A24U A25C U28C G44A | 0
26 | A41U C42U C45A | 0.06
27 | G1U C10G A14U A39G | 0.01
28 | G2A G7A C31A U43A | 0.3
29 | C8U G21U A24C C31G | 0.13
30 | G2C G17A A41G U43C | 0.03
31 | C8U A14U G44U | 0.03
32 | G21U G30U C46U | 1.65
33 | G5U G19U G35U | 0.07
34 | A25U A26G G27U | 0.6
35 | G21A G27A U32A G35U | 0.06
36 | A6G A16U G19U G33C G40A U43C | 0
37 | G7U C10A G40C | 0.07
38 | G2C U9C C15A G36C C46A | 0.01
39 | C15U A16C A25G | 0.07
40 | C10U C13U G19C G30U | 0.06
41 | C31G G33U C46G | 0.05
42 | C8G A11G G29A U34C A39C G40U | 0
43 | G2A C3U G17A G19C G33C A39C | 0.07
44 | U28G G30A U38C | 0.88
45 | A6C U38G G40C C42G | 0.02
46 | C3G G21C G29A G30U | 0.42
47 | G7U C13G A41U | 0.13
48 | A16U A26U C45A | 0

Row | Variant | self-cleavage
49 | U20C G21C C42A | 0.03
50 | A4U G30A A41C G44C | 0.05
51 | G19A G21U G30U | 0.74
52 | G7U U32A A41U U43C | 0.68
53 | C3G G5C G36C | 0.06
54 | G1U A16G G17A | 0.21
55 | U32A U38G A41C C42G | 0.03
56 | C3A G7A A24G U38C | 0.51
57 | G7A C15A C23G G35A A39C G40C | 0.1
58 | G5C C13G C23G | 0.35
59 | G1C C15U G27U | 0.04
60 | G1C A12G G27C C46U | 0.01
61 | G7A A11C A26U | 0.02
62 | C3G A26U G44C C45A | 0.53
63 | G30A A39U A41U | 0.78
64 | C3G G22U G27A | 0.36
65 | C13U U38G G40U | 0.04
66 | C3A A11C G44A | 0.06
67 | G2C U9C G22A A39U | 0.05
68 | C3A A6U A25G U28C | 0.13
69 | G1C G21U U28C | 0.13
70 | G7C U9A G33C U38C C46A | 0.02
71 | G7A G22A A24U G36A | 0.41
72 | G1C C18U G29A | 0.26

Row | Variant | self-cleavage
73 | C31A A41C G44U | 0.03
74 | G22C G33C G36U | 0.01
75 | G17A U34C C37A | 0.02
76 | G19C G22A A41G | 0.04
77 | G2U C13U G44A | 0.01
78 | C10A C23G U43A | 0.01
79 | G5C A11U A14G C15G G33U G40C | 0
80 | A39G G44U C46A | 0.03
81 | C10U A26C U43C | 0.03
82 | G7A U9G U34G | 0.03
83 | A11C A14G G21A C23G | 0.05
84 | G19U U20A C31A U43C | 0.03
85 | C31A G35A G40C G44A | 0
86 | G22U G29U C45U C46A | 0.16
87 | G1U A26G U43A | 0.05
88 | G19U G22C C23A G40A | 0.1
89 | G2U A14U G27U G40A | 0.02
90 | G7A C10U A11G | 0.02
91 | A24U U43C C46A | 0.02
92 | G27C U43A G44A | 0.06
93 | A4C C10A U20G | 0
94 | G17C C23A A25C C46A | 0.03
95 | U9G A11U G19A | 0.03
96 | G29U G30A C37U G40C | 0.11

Row | Variant | self-cleavage
97 | G5C C23U G36C C42U | 0.07
98 | G5C U43G G44U | 0.01
99 | G2A A25U G40U A41G | 0.15
100 | G7A C18A G22C | 0.07
101 | G1A A11U A14U G21U U43C | 0.03
102 | A4C A12G A14U G21U C31A G33A G44C C45A | 0.02
103 | C13G G17U G19C C23A A24U U32C | 0.05
104 | G30A U32G A41G | 0.19
105 | A14C G22C C23U A25U | 0.08
106 | U28C U32C G40A C46G | 0.04
107 | C8G G21C G35C | 0.04
108 | C13U G22C G29U | 0
109 | A11U A25G G33U G40U | 0.02
110 | G1C C31A U34A A39U C45G | 0.01
111 | A4G C31U G44A | 0.11
112 | U9A A16G G22U | 0.04
113 | A6G C8G A12U G19A G22A | 0.02
114 | G21U G33U A39U | 0.19
115 | A16U A24U G40C A41C | 0.01
116 | A24G U28A U34A | 0.04
117 | G17C G30U A39C | 0.02
118 | U9G A11G G36U U38A | 0
119 | G5C A6G A25C C37U G40U | 0.07
120 | G1U C3A G33A U38G U43A | 0.15

Row | Variant | self-cleavage
121 | G7C G17A C46A | 0.06
122 | A11C G27C G40U | 0.02
123 | G2A C3U G21U | 0.38
124 | A4U G7U A12C G30A U32C G36C | 0.02
125 | C8G A16U G27A G29A | 0.07
126 | G1C A6G A24G A41C | 0.03
127 | A4G G21A U34G | 0.14
128 | G2C C18U G35U | 0.12
129 | A6C C8A C15U A16G C23A C31A | 0.12
130 | G5C U20A C23A G40A | 0.13
131 | C8A C10U C15A U43G C45U | 0.03
132 | A4G U20C U43A | 0
133 | G1C C13A A14G U34A U43A C45U | 0.02
134 | C8G G17A C18G G27C G36C U43G C45A | 0.04
135 | G2C A4C C13A A26U G44C C46G | 0.03
136 | A12G C13U G22A G33C A41G | 0.08
137 | A16U A25C G44A | 0.01
138 | C10A U20G C46A | 0.04
139 | G2A C10A C23U U38C | 0.07
140 | C15U U20A U34A | 0.11
141 | A12G C18A G27A G36A | 0.03
142 | C10G G17A A41G C42A | 0.04
143 | A12C C42U C45U | 0
144 | G19C A24U G35A | 0.11

Row | Variant | self-cleavage
145 | C3U A12U C23A U32C U43A | 0.02
146 | C3A G17U G19U U20C | 0.08
147 | G22U G30A U32A G40A | 0.05
148 | A4U G5C G40U | 0.08
149 | C23G A24C U32G | 0
150 | C3G A11U C13G C23G A25C U34C | 0.01
151 | G5U G19C G27C U38G | 0
152 | G5U G33U C45G | 0.02
153 | A4C G17C C42U C46U | 0.04
154 | G1C A16U A25U | 0.03
155 | A4U A14G G19U G44U | 0.08
156 | C31U G35U C42U C45A | 0
157 | G2U G21U A24G | 0.05
158 | A11U C15A G19C | 0.06
159 | G5U U28C U38A | 0.08
160 | C3A G7U G22A G33U C46A | 0.09
161 | A24G G36C C37A | 0.08
162 | C13A G17C G29U C31G G36C C45U | 0.14
163 | G22C G30A A39C | 0.46
164 | G2A A11C C23A | 0.03
165 | C8A A11U U43G | 0.04
166 | U9A A24G A25G C31U G36U | 0
167 | A12G C13A A26G G30U | 0.01
